Test results taken from the supplement of paper PMC4967469.
pIC50: −log10 of the molar value. The IC50 comes from the fitted curve, where viability falls to half of the control; a fit beyond the top or the lowest dose is shown as a bound at that dose. For AUC the same curve is integrated over the 256-fold range of doses and scaled to a fraction; values near 1 show little effect. For some assays here: An inferred top dose comes from the curve model; the source does not state it.

Legend:
Test in all cases: Viability of human cancer cell lines after 72 h of drug (GDSC screen)
Midostaurin = compound: CO[C@@H]1[C@H](N(C)C(=O)c2ccccc2)C[C@H]2O[C@]1(C)n1c3ccccc3c3c4c(c5c6ccccc6n2c5c31)C(=O)NC4 [Midostaurin]; conditions: top dose 0.512 µM; top dose inferred
Method: (§1)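 Human cancer cell lines in 384-well plates, medium with 10% serum, drug for 72 h over a 256-fold dose range (nine 2-fold or five 4-fold steps up to the top dose). Adherent lines were fixed and stained with the nucleic acid dye Syto60, suspension lines read with resazurin; signal relative to control wells, capped at 0 and 100%. One two-parameter sigmoid per drug and line, fitted in a mixed model over all curves with the slope shared within a line.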

NVP-BHG712 = compound: Cc1ccc(C(=O)Nc2cccc(C(F)(F)F)c2)cc1Nc1nc(-c2cccnc2)nc2c1cnn2C [NVP-BHG712]; conditions: top dose 10.24 µM; top dose inferred
Method: as §1

Roscovitine = compound: CC[C@H](CO)Nc1nc(NCc2ccccc2)c2ncn(C(C)C)c2n1 [Roscovitine]; conditions: top dose 16 µM; top dose inferred
Method: as §1

Bosutinib = compound: COc1cc(Nc2c(C#N)cnc3cc(OCCCN4CCN(C)CC4)c(OC)cc23)c(Cl)cc1Cl [Bosutinib]; conditions: top dose 2 µM
Method: as §1

Mitomycin C = compound: CO[C@@]12[C@H](COC(N)=O)C3=C(C(=O)C(C)=C(N)C3=O)N1C[C@@H]1N[C@@H]12 [Mitomycin C]; conditions: top dose 16 µM
Method: as §1

IOX2 = compound: O=C(O)CNC(=O)c1c(O)c2ccccc2n(Cc2ccccc2)c1=O [IOX2]; conditions: top dose 0.1 µM; top dose inferred
Method: as §1

Cell Line	AUC (Midostaurin)	pIC50 (Midostaurin)	AUC (NVP-BHG712)	pIC50 (NVP-BHG712)	AUC (Roscovitine)	pIC50 (Roscovitine)	AUC (Bosutinib)	pIC50 (Bosutinib)	AUC (Mitomycin C)	pIC50 (Mitomycin C)	AUC (IOX2)	pIC50 (IOX2)
A253 (head and neck, adherent)	0.94	< 6.29	0.979	< 4.99	0.975	< 4.80	0.95	< 5.70	0.327	6.47	0.988	< 7.00
Daudi (Burkitt lymphoma, suspension)	0.911	< 6.29	0.775	5.45	0.917	< 4.80	0.961	< 5.70	0.337	6.42	0.976	< 7.00
KY821 (leukaemia, suspension)	0.991	< 6.29	0.968	< 4.99	0.945	< 4.80	0.93	< 5.70	0.58	5.79	0.991	< 7.00
GI-1 (glioma, adherent)	0.824	6.54	0.914	< 4.99	0.849	4.95	0.986	< 5.70	0.128	7.15	0.985	< 7.00
NCI-H2081 (small cell lung carcinoma, suspension)	0.927	< 6.29	0.989	< 4.99	0.977	< 4.80	0.962	< 5.70	0.469	6.09	0.988	< 7.00
OMC-1 (cervix, adherent)	0.983	< 6.29	0.97	< 4.99	0.986	< 4.80	0.894	< 5.70	0.375	6.35	0.986	< 7.00
LB1047-RCC (kidney, adherent)	0.722	6.83	0.864	< 4.99	0.934	< 4.80	0.814	5.90	0.101	> 7.20	0.957	< 7.00
P31-FUJ (acute myeloid leukaemia, suspension)	0.996	< 6.29	0.995	< 4.99	0.996	< 4.80	0.989	< 5.70	0.714	5.47	0.996	< 7.00
MHH-PREB-1 (B-cell leukaemia, suspension)	0.96	< 6.29	0.651	5.80	0.919	< 4.80	0.965	< 5.70	0.656	5.59	0.988	< 7.00
KARPAS-45 (lymphoblastic leukaemia, suspension)	0.897	6.35	0.492	6.21	0.961	< 4.80	0.854	5.92	0.651	5.62	0.991	< 7.00
A388 (skin, adherent)	0.911	< 6.29	0.955	< 4.99	0.965	< 4.80	0.891	< 5.70	0.276		0.962	< 7.00
EJM (lymphoid neoplasm, semi-adherent)	0.981	< 6.29	0.898	5.03	0.969	< 4.80	0.893	5.77	0.625	5.68	0.992	< 7.00
SU-DHL-6 (B-cell lymphoma, suspension)	0.885	6.50	0.667	5.79	0.92	4.88	0.914	5.80	0.468	6.08	0.995	< 7.00
MMAC-SF (melanoma, adherent)	0.958	< 6.29	0.986	< 4.99	0.972	< 4.80	0.953	< 5.70	0.497	6.01	0.986	< 7.00
KMOE-2 (acute myeloid leukaemia, suspension)	0.963	< 6.29	0.6	5.93	0.968	< 4.80	0.871	5.81	0.544	5.89	0.983	< 7.00
ES-2 (ovary, adherent)	0.991	< 6.29	0.871	5.12	0.953	< 4.80	0.719	6.32	0.518	5.95	0.988	< 7.00
MLMA (hairy cell leukaemia, semi-adherent)	0.961	< 6.29	0.485	6.24	0.937	< 4.80	0.784	6.07	0.54	5.89	0.98	< 7.00
